Assay results: PubChem BioAssay AID504832 (National Center for Advancing Translational Sciences (NCATS), 2011)
Screen size: about 310,000 compounds; about 18,000 (5.8%) were called active. The shares of active, inactive and inconclusive entries below differ from those in the screen. The call rests on the fitted dose curve; in most records, active means well fitted inhibition curve with a large enough effect; inconclusive means small, poorly fitted or top-dose-only effect, or another doubt; inactive means no such curve, though single readings can be large or run the other way. Potencies of inconclusive entries are left out as doubtful fits.

Test: Primary qHTS for delayed death inhibitors of the malarial parasite plastid, 48 hour incubation
Details: P. falciparum luciferase growth in erythrocytes; series mostly up to 28.7 µM
Procedure, shortened: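 Growth was read as firefly luciferase luminescence after a 48 h, 37 C, 5% CO2 exposure of compounds to reporter-bearing P. falciparum cultures (0.1% parasitemia, 2% hematocrit final) in Albumax-supplemented RPMI 1640.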
On the % scale 0 is the no-effect control and ±100 the full control effect; potency means the concentration at half of the fitted maximal effect; tags describe the fitted curve by direction and shape.

Compound	Potency	activity change, negative = inhibition
O=C(Nc1ccc(F)c(F)c1)C1CCN(S(=O)(=O)c2cccs2)CC1	inconclusive [inhibitor, single point]	–
COc1cccc(N(C(=O)c2csnn2)C(C(=O)NC2CCCC2)c2ccccc2)c1 (stereo not given)	inconclusive [inhibitor, partial curve, poor fit]	–
COCCn1nnnc1C(CC(C)C)N1CCN(c2cccc(OC)c2)CC1 (stereo not given)	inconclusive [inhibitor, single point]	–
Cc1ccc(S(=O)(=O)N(CCCO)CC(O)CON=C2c3ccccc3-c3ccccc32)cc1 (stereo not given)	inconclusive [inhibitor, single point]	–
CSc1nc(C)c(C(=O)Nc2ccccc2)c(C)c1C#N	inconclusive [inhibitor, single point]	–
CN(C)C(CNC(=O)c1ccc(NS(=O)(=O)c2ccc(F)c(F)c2)cc1)c1ccccc1 (stereo not given)	inconclusive [inhibitor, single point]	–
O=C(N/N=C/c1cccnc1)c1ccc2c(c1)OCO2	–	inactive: -25.4% [at 0.00184 µM]
NS(=O)(=O)c1ccc(NC(=S)Nc2cc(Cl)c(Cl)cc2Cl)cc1	inactive	–
CC(C)(C)n1nnnc1CN(Cc1ccco1)Cc1cc2cc3c(cc2[nH]c1=O)OCO3	inconclusive [inhibitor, partial curve, poor fit]	–
O=C(c1ccc2ccccc2c1)C1CCCN(C(=O)c2cccnc2)C1 (stereo not given)	inactive	–
COc1cc(NC(=O)CSCc2cnn(-c3ccccc3)c2-n2cccc2)cc(OC)c1	inconclusive [inhibitor, partial curve]	–
COCCN(C(=S)Nc1cccc(OC)c1)C(C)c1cccs1 (stereo not given)	inactive	–
COc1ccc(-c2cc(C(F)(F)F)n3nc(C(=O)Nc4c(C)n(C)n(-c5ccccc5)c4=O)c(Cl)c3n2)cc1	inconclusive [inhibitor, partial curve, poor fit]	–
CCCn1c(C(C)Nc2nc(-c3cc(Cl)c(N)c(Cl)c3)cs2)nc2cc(Cl)c(N3CCCCC3)cc21 (stereo not given)	inconclusive [inhibitor, partial curve]	–
Cc1oc(-c2cccc(Cl)c2)nc1CS(=O)(=O)CC(=O)NCCCN1CCOCC1	inconclusive [inhibitor, full curve, poor fit]	–
COc1ccc(CCC(C)NCc2ccc(C(F)(F)F)cc2)cc1 (stereo not given)	inconclusive [inhibitor, partial curve]	–
CCOC(=O)C1CCCN(C2=NC(=O)/C(=C/c3ccc(OC)cc3)S2)C1 (stereo not given)	active: 10.4 µM	–
COc1cccc(/C=C2/Sc3ccc(C(=O)NCCN4CCCC4)cc3NC2=O)c1	inconclusive [inhibitor, partial curve]	–
CCOC(=O)Nc1ccc2c(c1)N(C(=O)CN)c1ccccc1CC2	active: 11.7 µM	–
O=C(Nc1ccc(F)cc1F)c1cccn1-c1ncc(C(F)(F)F)cc1Cl	inconclusive [inhibitor, partial curve]	–

Compound	Potency	activity change, negative = inhibition
O=[N+]([O-])c1ccccc1-c1cc(-c2ccccc2)cc(-c2ccccc2)[n+]1Cc1ccccc1Cl	active: 0.928 µM	–
CCOC(=O)N1CCN(C(=O)Nc2ccc3nc(C)c(C)nc3c2)CC1	inconclusive [inhibitor, partial curve]	–
Cc1cnc(C(=O)NC2CC(C)(C)Cc3c2cnn3-c2ccccc2)cn1 (stereo not given)	inactive	–
CSc1ccc(CN(C)CC(=O)N(C)CC(=O)Nc2ccccc2Br)cc1	inconclusive [inhibitor, single point]	–
CCN(CC)C(=O)c1[nH]cnc1C(=O)NCCCCCNC(=O)OC(C)(C)C	inconclusive [inhibitor, single point]	–
CCC1(c2ccccc2)C(=O)NC(=O)N(C)C1=O (stereo not given)	active: 16.9 µM	–
O=C(Nc1cc(-c2ccccc2)cs1)c1ccco1	inconclusive [inhibitor, partial curve, poor fit]	–
CC(=O)c1cccc(CN2CCCCC2C(=O)Nc2ccc(Oc3ccccc3)nc2)c1 (stereo not given)	inconclusive [inhibitor, partial curve, poor fit]	–
COc1ccc(C2c3c(-c4ccccc4O)n[nH]c3C(=O)N2Cc2ccco2)cc1 (stereo not given)	inconclusive [inhibitor, partial curve]	–
O=C1CC(/C=C/c2ccc(Cl)cc2)=Nc2ccccc2N1	inconclusive [inhibitor, single point]	–
COc1cccc(CN(CC(=O)NCc2ccco2)C(=O)CNS(=O)(=O)c2ccccc2)c1	inactive	–
CCN(CC)CCC(c1ccc2c(c1)OCO2)c1c(OC)cc(OC)c2ccc(=O)oc12 (stereo not given)	inconclusive [inhibitor, single point]	–
CCN(CC(=O)NCc1cccs1)C(=O)c1cccc(S(=O)(=O)Nc2ccc(OC)cc2)c1	inconclusive [inhibitor, single point]	–
Cc1nonc1N1CCN(Cc2cn[nH]c2-c2ccc3c(c2)OCO3)CC1	inactive	–
C/C=C(\C)C(=O)Nc1cccc(C2=NOC3(C2)C[C@H](C(N)=O)N(C(=O)c2cc([N+](=O)[O-])cc([N+](=O)[O-])c2)C3)c1 (stereo not given in full)	inconclusive [inhibitor, single point]	–
O=C(/C=C/c1ccc2c(c1)OCO2)Nc1nc2ccccc2s1	inactive	–
CCOc1cc(N2CCOCC2)c(OCC)cc1NCC(=O)N1CCN(Cc2ccccc2)CC1	inconclusive [inhibitor, partial curve, poor fit]	–
CC(C)Oc1ccc(C(=O)/C(=C\c2cccs2)c2nc3ccccc3o2)cc1	inconclusive [inhibitor, single point]	–
Cc1ccc(NS(=O)(=O)c2ccc(OCC(=O)Nc3cccc([N+](=O)[O-])c3)c(C)c2)cc1	inconclusive [inhibitor, single point]	–
CC(C)CC(c1nnnn1Cc1ccco1)N1CCN(c2cccc(Cl)c2)CC1 (stereo not given)	inconclusive [inhibitor, single point]	–
